# Source: PubChem BioAssay AID493208 (National Center for Advancing Translational Sciences (NCATS), 2011)
# The whole screen tested about 44,000 compounds, of which about 340 (0.77%) were called active. About 5% were inconclusive and are not listed. Calls follow the shape of the dose curve; as a rule, active = well fitted inhibition curve with a large enough effect; inconclusive = small, poorly fitted or top-dose-only effect; inactive = flat fitted curve, though single readings scatter. The list shows a part of the results.
# Test: Acumen qHTS Assay for Inhibitors of the mTORC1 Signaling Pathway in MEF (Tsc2-/-, p53-/-) Cells: Sytravon;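 also: plate controls were DMSO for no effect and rapamycin for full effect; nearly all actives have a fitted effect of over 50% in size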
# Conditions: phospho-rpS6 immunofluorescence/PI, 24 h; series mostly up to 38.3 µM; activity change, negative = inhibition: at the top concentration
# Summary of the method: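 Immunofluorescence of rpS6 phosphorylation in Tsc2-/-, p53-/- MEFs after 24 h compound exposure, normalized to propidium iodide signal. Activity is expressed as % positive cells, thresholded with 7.5 nM rapamycin.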
row,Compound,"activity change, negative = inhibition"
1,Cc1cccc(N(C)S(=O)(=O)c2cc3c(cc2Cl)NC(=O)CO3)c1,inactive: -12%
2,Cc1nn2c(=O)cc(COC(=O)c3cccc(NC(=O)c4cccs4)c3)nc2s1,inactive: 5.67%
3,CCOc1ccc(NS(=O)(=O)c2ccc3[nH]c4c(c3c2)CCCC4)cc1,inactive: -7.79%
4,Cc1ccc(CNS(=O)(=O)c2ccc3c(c2)CCN3S(C)(=O)=O)cc1,inactive: 1.03%
5,COc1ccc2nc(N(Cc3cccnc3)C(=O)c3ccc4c(c3)OCCO4)sc2c1,inactive: 6.55%
6,COc1ccc(N(CC(=O)N2CCN(c3cccc(C)c3C)CC2)S(=O)(=O)c2c(C)noc2C)cc1,inactive: -5.41%
7,COc1ccc(-c2cn3nc(N4CCC(C(=O)Nc5cccc(C)c5C)CC4)sc3n2)cc1,inactive: -0.452%
8,Cc1c(Cl)cccc1NC(=O)CSc1nc(=O)n(Cc2ccccn2)c2c1CCC2,inactive: -4.61%
9,CCCSc1ncc(Cl)c(C(=O)Nc2sc3c(c2C(=O)NCCOC)CCCC3)n1,inactive: 2.92%
10,Cc1ccc(NC(=O)Cn2c(=O)n(CCCCC(=O)NCCc3ccccc3)c(=O)c3ccccc32)c(C)c1,inactive: -0.957%
11,O=C(Nc1ccc(F)cc1F)c1cc(-c2ccccc2O)no1,inactive: -3.04%
12,Cc1nn2c(=O)cc(COC(=O)c3ccc(NC(=O)C4CCCCC4)cc3)nc2s1,inactive: 0%
13,CCCCOC(=O)c1ccc(NC(=O)c2cc3c(=O)n4cccc(C)c4nc3n2C)cc1,inactive: 8.19%
14,O=C(COc1ccccc1Cl)Nc1ccc2oc(-c3ccccc3F)nc2c1,inactive: -1.3%
15,COCCNC(=O)CCCn1c(=O)c2cc(OC)c(OC)cc2n(CC(=O)Nc2ccc(F)cc2)c1=O,inactive: 6.52%
16,Cc1ccc(NC(=O)C(NS(=O)(=O)c2ccc3c(c2)CCC(=O)N3)c2ccccc2)cc1C (centres undefined),inactive: 3.83%
17,O=C(CSc1nc(=O)[nH]c2c1CCCC2)Nc1ccccc1C(F)(F)F,inactive: 0.327%
18,CCOC(=O)C1CCN(CCC(=O)Nc2ccc(Br)c(C)c2)CC1,inactive: 3.25%
19,CCOc1ccc(CNC(=O)c2ccc(-c3nc(CS(=O)(=O)c4ccccc4)c(C)o3)cc2)cc1,inactive: -1.64%
20,COc1ccc(Nc2cc(C(=O)NC3CCCC3)c3ccccc3n2)c(OC)c1,inactive: 0.657%
21,CCNC(=O)Cn1c(-c2cccs2)cc2ccccc21,inactive: -15.5%
22,Cc1ccc(CN(C(=O)Nc2cccc(Cl)c2)c2ccccn2)cc1,inactive: -10.3%
23,COc1ccc(NC(=O)c2nnn(Cc3nc(-c4cc(Br)ccc4OC)oc3C)c2C)cc1,inactive: -11.4%
24,CCOc1cccc(C2c3c(oc4ccc(F)cc4c3=O)C(=O)N2CCc2ccc(OC)cc2)c1 (centres undefined),inactive: 10.3%

row,Compound,"activity change, negative = inhibition"
1,Cc1oc(C)c2c(=O)cc(-c3ccc4c(c3)OCO4)cc(OC(=O)c3ccccc3Br)c12,inactive: -2.6%
2,COc1ccc(NC(=O)C2CCN(S(=O)(=O)c3ccc4c(c3)CCCC(=O)N4)CC2)cc1Cl,inactive: -6.99%
3,Cc1ccc(Cn2c(-c3ccccc3)nc3ccccc32)cc1,inactive: -7.28%
4,COc1cc(/C=C(\C#N)c2nc3ccccc3c(=O)[nH]2)cc(OC)c1OC,inactive: -5.42%
5,Cc1ccc(-c2nc3ccccc3n3c(-c4ccccc4)c4c(=O)n(C)c(=O)n(C)c4c23)cc1,inactive: 4.18%
6,COc1ccc(S(=O)(=O)N2CCN(c3ccccc3OC)CC2)cc1-c1noc(C)n1,inactive: -2.79%
7,COc1cc(OC)c(NC(=O)c2cc(CN3CCOCC3)on2)cc1Cl,inactive: -5.54%
8,Cc1ccc(C)c(Cn2c(=O)n(CCCCC(=O)NCc3ccccc3Cl)c(=O)c3ccccc32)c1,inactive: 1.81%
9,CCn1ccc2cc(S(=O)(=O)N3CCC(C(=O)NCc4cccc(C)c4)CC3)ccc21,inactive: 0.618%
10,CCCCNC(=O)c1cc(Sc2ccc(OCC)cc2)nc2ccccc12,inactive: 14%
11,CCOc1ccccc1NC(=O)Cn1ccn(-c2ccccc2)c(=O)c1=O,inactive: 5.3%
12,CCn1cc(C(=O)NCc2ccc(C)cc2)c(=O)c2cc(S(=O)(=O)N3CCC(C)CC3)ccc21,inactive: -3.94%
13,O=C(NCCSCc1ccc(Cl)cc1)C1CCN(S(=O)(=O)Cc2ccccc2)CC1,inactive: 1.53%
14,Cc1ccc(-c2c(C(=O)Nc3ccc(F)c(F)c3)oc(=O)c3ccccc23)cc1,inactive: -0.0361%
15,CN(C)c1ccc(CNC(=O)c2cc3cc(S(=O)(=O)N4CCCCC4)ccc3n2C)cc1,inactive: 0%
16,O=C(CN1C(=O)C2CCCCN2c2ccc(C(=O)N3CCCC3)cc21)NCc1cccc(Cl)c1 (centres undefined),inactive: 3.82%
17,Cc1ccc(Cl)c2sc(NC(=O)CS(=O)(=O)c3ccc(Cl)cc3)nc12,inactive: -5%
18,CCOc1ccc(CNS(=O)(=O)c2c(C(=O)N3CCCCCC3)c(C)n(C)c2C)cc1OC,inactive: 0%
19,Cc1ccc(NC(=O)Nc2nnc(N3CCCC3)s2)c(C)c1,inactive: 1.16%
20,Cc1ccc(CNC(=O)Cc2coc3cc(C)cc(C)c23)cc1,inactive: 4.9%
21,COc1ccc(-c2cn3nc(N4CCC(C(=O)Nc5cccc(Cl)c5)CC4)sc3n2)cc1,inactive: -5.68%
22,CCCCN(C)C(=O)C1CCCN(c2ncnc3onc(-c4ccc(F)cc4)c23)C1 (centres undefined),inactive: 0.67%
23,CCN(CC)S(=O)(=O)c1ccc2c(c1)c(=O)c(C(=O)NCc1ccccc1)cn2C,inactive: -7.77%
24,COc1ccc(CNC(=O)CCC(=O)N2CC3CCCN3c3ccccc32)cc1 (centres undefined),inactive: 2.9%

row,Compound,"activity change, negative = inhibition"
1,COc1ccccc1CNC(=O)c1ccc(CS(=O)(=O)c2ccccc2C)o1,inactive: -2.48%
2,O=C(NCc1ccccc1)c1ccc(NC(=O)c2nsc3ccccc23)cc1,inactive: -17.5%
3,COc1cc(CN(CC2CCCO2)C(=O)c2ccc(F)cc2)cc(OC)c1OC (centres undefined),inactive: 1.98%
4,CC(=O)N1CCCc2cc(S(=O)(=O)N3CCC(C(=O)NCc4ccc(N(C)C)cc4)CC3)ccc21,inactive: -11.2%
5,CCOc1cccc(CC(=O)Nc2ccc3nc(N4CCCCC4)cc(C)c3c2)c1OCC,inactive: -9.16%
6,CCCNC(=O)c1ccc(-n2c(-c3ccccc3)cc3c2CCCCC3)cc1,inactive: -18.3%
7,Cn1c(=NC(=O)c2ccc3c(c2)OCCO3)sc2cc(S(C)(=O)=O)ccc21,inactive: 2.83%
8,COc1ccccc1CNC(=O)C(CC(C)C)NS(=O)(=O)c1ccc2c(c1)oc(=O)n2C (centres undefined),inactive: -4.41%
9,Cc1ccccc1-c1noc(C(C)NC(=O)c2ccco2)n1 (centres undefined),inactive: 4.09%
10,CCC(=O)N1CCc2cc(S(=O)(=O)NCCC(=O)NCc3ccccc3Cl)ccc21,inactive: 3.57%
11,CCOC(=O)c1ccc(NC(=O)C2CCCN(c3ccc(Sc4ccc(C)cc4)nn3)C2)cc1 (centres undefined),inactive: -8.12%
12,Cc1cc(Br)ccc1NC(=O)CCS(=O)(=O)c1cccc2nsnc12,inactive: 0%
13,CC(=O)NCCNc1nc2c(S(=O)(=O)c3ccc(C)c(C)c3)nnn2c2ccc(Cl)cc12,inactive: -1.41%
14,COC(=O)c1ccc(-n2nnc(-c3nc(-c4ccc5c(c4)OCO5)no3)c2C)cc1,inactive: -5.65%
15,CC(C)c1nc2ccc(C(=O)NCCCN3CCN(c4ccccc4F)CC3)cc2o1,inactive: 0.104%
16,CCN(C(=O)CN(C)S(=O)(=O)c1ccc2c(c1)c(=O)n(C)c(=O)n2C)c1ccc(OC)cc1,inactive: -9.94%
17,Cc1ccc(C(C)C)c(OCC(=O)Nc2ccc(S(=O)(=O)Nc3onc(C)c3C)cc2)c1,inactive: 0.617%
18,CCOc1ccc2nc(NC(=O)CS(=O)(=O)c3ccc(Cl)cc3)sc2c1,inactive: 2.59%
19,Cc1ccc(C2c3c(oc4ccccc4c3=O)C(=O)N2c2ccc(C)cn2)cc1 (centres undefined),inactive: 1.11%
20,N#Cc1ccc(CN2C(=O)c3ccccc3Sc3ccc(C(=O)OCc4ccco4)cc32)cc1,inactive: -0.607%
21,COc1ccc(NC(=O)c2cc3nc(-c4ccc(Cl)c(Cl)c4)cc(C(F)(F)F)n3n2)c(OC)c1,inactive: 1.38%
22,CCOc1ccccc1NC(=O)N1CCC(n2c(C)nc3cccnc32)CC1,inactive: 4%
23,Cc1sc2ncn(CC(=O)Nc3ccc(F)cc3F)c(=O)c2c1S(=O)(=O)N1CCC(C)CC1,inactive: -5.06%
24,COc1ccc(-n2nc3c(N4CCCC(C(=O)NCc5ccc(C)cc5)C4)nnc(C)c3c2C)cc1 (centres undefined),inactive: -19%

row,Compound,"activity change, negative = inhibition"
1,Cc1c(-c2nnc(SCC(=O)Nc3ccccc3F)o2)nnn1-c1ccc(F)cc1,inactive: -0.823%
2,COc1ccc(CNC(=O)CCc2cn(C)c3ccccc23)cc1,inactive: 3.64%
3,Cc1ccc(CCNC(c2ccc(F)cc2)c2nnc(-c3ccccc3Cl)o2)cc1 (centres undefined),inactive: -22.3%
4,COc1cccc(N2CCN(S(=O)(=O)c3cn(C)c(C)n3)CC2)c1,inactive: -3.92%
5,CCn1c(C(=O)N2CCC(C(=O)N3CCN(c4cc(C)ccc4C)CC3)CC2)cc2sccc21,inactive: -6.15%
6,COc1ccc(CNC(=O)c2ccc3nc(CCc4ccccc4)oc3c2)cc1OC,inactive: -7.81%
7,CCOc1ccc(CNC(=O)c2cccc(NC(=O)N3CCSc4ncccc43)c2)cc1,inactive: -0.882%
8,CC(=O)N1CCc2cc(S(=O)(=O)NC(CC(C)C)C(=O)Nc3ccc(C(C)C)cc3)ccc21 (centres undefined),inactive: 0.869%
9,CC(C)Cn1cc(NC(=O)Nc2cccc(C(F)(F)F)c2)c2ccccc2c1=O,inactive: 0.325%
10,CCOC(=O)c1c(C)sc(-c2c(-c3ccc4c(c3)OCCO4)[nH]c3c2c(=O)n(C)c(=O)n3C)c1O,inactive: -0.745%
11,Cc1cc(-c2ccc(C)c(S(=O)(=O)N3CCC(C)CC3)c2)on1,inactive: -1.14%
12,CC(=O)N1c2ccc(S(=O)(=O)N3CCCCCC3)cc2CC1C(=O)NC(C)C (centres undefined),inactive: 2.64%
13,CCOC(=O)N1CCc2c(sc3c2c(=O)n(Cc2ccccc2)c(=O)n3Cc2cc(C)ccc2C)C1,inactive: 0.844%
14,CC(C)CC(=O)Nc1nc2c(s1)CC(C(C)(C)C)CC2 (centres undefined),inactive: 7.85%
15,CCc1nn(CCCC(=O)N2CCN(c3cc(Cl)ccc3C)CC2)c(=O)c2cc3occc3n12,inactive: -1.17%
16,COc1ccc(CC(=O)NC2CC(=O)N(c3cccc(F)c3)C2)cc1OC (centres undefined),inactive: -1.62%
17,CCOC(=O)c1c(C)n(S(=O)(=O)c2ccc(C)cc2C)c2ccc(NS(=O)(=O)c3ccc(C)cc3C)cc12,inactive: 1.5%
18,COc1ccccc1Nc1sc(C(=O)c2ccc3c(c2)OCO3)c(N)c1S(=O)(=O)c1ccccc1,inactive: 1.01%
19,Cc1ccc(C2=Nc3ccccc3N(CC(=O)Nc3ccccc3F)C(=O)C2)cc1C,inactive: -23.2%
20,CCC1Oc2ccc(C)cc2N(CC(=O)NCc2ccc(OC)cc2)C1=O (centres undefined),inactive: 0.0473%
21,CCCCN1C(=O)c2[nH]nc(-c3ccccc3O)c2C1c1ccc(C(C)(C)C)cc1 (centres undefined),inactive: -3.26%
22,O=C(Nc1cccc(Cl)c1)c1ccc2nc(CCc3ccccc3)oc2c1,inactive: -13.2%
